Data: the supplement of paper PMC8728848
This is one part of the list.

Experiments:
Test in all cases: glycan array binding signal (z-score within array); higher = stronger binding
Conditions in all cases: glycan notation: IUPAC condensed, linker removed
[1] = target: Gal(b1-4)GlcNAc(b1-3)Gal(b1-4)GlcNAc(b1-3)[Gal(b1-4)GlcNAc(b1-3)Gal(b1-4)GlcNAc(b1-6)]GalNAc
In short: (§1)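 Glycan array binding is given as a within-array Z-score, which can be read as non-binding when negative. The arrays, 3228 of them, came from the Consortium for Functional Glycomics database and were retained only where the protein sequence was available. Z-scores were averaged across arrays of the same protein sequence at different concentrations or buffers and across linkers.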

[2] = target: Gal(b1-4)GlcNAc(b1-3)Gal(b1-4)GlcNAc(b1-6)[Gal(b1-3)]GalNAc
In short: as §1

[3] = target: Gal(b1-4)GlcNAc(b1-3)Gal(b1-4)[Fuc(a1-3)]GlcNAc(b1-3)Gal(b1-4)[Fuc(a1-3)]GlcNAc
In short: as §1

[4] = target: Gal(b1-4)GlcNAc(b1-3)GalNAc
In short: as §1

[5] = target: Gal(b1-4)GlcNAc(b1-3)[Fuc(a1-3)GlcNAc(b1-6)]Gal(b1-4)Glc
In short: as §1

[6] = target: Gal(b1-4)GlcNAc(b1-3)[Gal(b1-4)GlcNAc(b1-6)]Gal(b1-4)GlcNAc
In short: as §1

[7] = target: Gal(b1-4)GlcNAc(b1-3)[GlcNAc(b1-6)]Gal(b1-4)GlcNAc
In short: as §1

[8] = target: Gal(b1-4)GlcNAc(b1-6)Gal(b1-4)GlcNAc
In short: as §1

[9] = target: Gal(b1-4)GlcNAc(b1-6)GalNAc
In short: as §1

[10] = target: Gal(b1-4)GlcNAc(b1-6)[Gal(b1-3)]GalNAc
In short: as §1

[11] = target: Gal(b1-4)GlcNAc(b1-6)[Gal(b1-4)GlcNAc(b1-3)]GalNAc
In short: as §1

[12] = target: Gal(b1-4)GlcNAc6P
In short: as §1

[13] = target: Gal(b1-6)Gal
In short: as §1

[14] = target: Gal3S(b1-3)GalNAc
In short: as §1

[15] = target: Gal3S(b1-3)GlcNAc
In short: as §1

[16] = target: Gal3S(b1-3)[Fuc(a1-4)]GlcNAc
In short: as §1

[17] = target: Gal3S(b1-4)Glc
In short: as §1

[18] = target: Gal3S(b1-4)Glc6S
In short: as §1

[19] = target: Gal3S(b1-4)GlcNAc
In short: as §1

[20] = target: Gal3S(b1-4)[Fuc(a1-3)]Glc6S
In short: as §1

[21] = target: Gal3S(b1-4)[Fuc(a1-3)]GlcNAc
In short: as §1

[22] = target: Gal3S(b1-4)[Fuc(a1-3)]GlcNAc6S
In short: as §1

[23] = target: Gal3S4S(b1-4)GlcNAc
In short: as §1

[24] = target: Gal3S6S(b1-4)GlcNAc
In short: as §1

[25] = target: Gal3S6S(b1-4)GlcNAc6S
In short: as §1

[26] = target: Gal4S(b1-4)GlcNAc
In short: as §1

[27] = target: Gal4S6S(b1-4)GlcNAc
In short: as §1

[28] = target: Gal6P(b1-4)GlcNAc
In short: as §1

[29] = target: Gal6S(b1-3)GlcNAc
In short: as §1

[30] = target: Gal6S(b1-3)GlcNAc6S
In short: as §1

[31] = target: Gal6S(b1-4)Glc
In short: as §1

[32] = target: Gal6S(b1-4)Glc6S
In short: as §1

[33] = target: Gal6S(b1-4)GlcNAc
In short: as §1

[34] = target: Gal6S(b1-4)GlcNAc6S
In short: as §1

[35] = target: GalNAc(a1-3)Gal
In short: as §1

[36] = target: GalNAc(a1-3)GalNAc
In short: as §1

[37] = target: GalNAc(a1-3)GalNAc(b1-3)Gal(a1-4)Gal(b1-4)Glc
In short: as §1

B1: DC-ASGPR L+GEE (Homo sapiens) (protein)
chain: MTRTYENFQYLENKVKVQGFKNGPLPLQSLLQRLRSGPCHLLLSLGLGLLLLVIICVVGFQNSKFQRDLVTLRTDFSNFTSNTVAEIQALTSQGSSLEETIASLKAEVEGFKQERQAGVSELQEHTTQKAHLGHCPHCPSVCVPVHSEMLLRVQQLVQDLKKLTCQVATLNNNGEEASTEGTCCPVNWVEHQDSCYWFSHSGMSWAEAEKYCQLKNAHLVVINSREEQNFVQKYLGSAYTWMGLSDPEGAWKWVDGTDYATGFQNWKPGQPDDWQGHGLGGGEDCAHFHPDGRWNDDVCQRPYHWVCEAGLGQTSQESH
glycan array binding signal (z-score) [1]: 0.178
glycan array binding signal (z-score) [2]: -0.495
glycan array binding signal (z-score) [3]: -0.203
glycan array binding signal (z-score) [4]: -0.353
glycan array binding signal (z-score) [5]: -0.166
glycan array binding signal (z-score) [6]: -0.441
glycan array binding signal (z-score) [7]: -0.101
glycan array binding signal (z-score) [8]: -0.61
glycan array binding signal (z-score) [9]: 2.32
glycan array binding signal (z-score) [10]: -0.336
glycan array binding signal (z-score) [11]: -0.432
glycan array binding signal (z-score) [12]: -0.684
glycan array binding signal (z-score) [13]: -0.84
glycan array binding signal (z-score) [14]: 0.442
glycan array binding signal (z-score) [15]: 0.009
glycan array binding signal (z-score) [16]: 0.213
glycan array binding signal (z-score) [17]: 0.278
glycan array binding signal (z-score) [18]: 0.233
glycan array binding signal (z-score) [19]: -0.527
glycan array binding signal (z-score) [20]: -0.592
glycan array binding signal (z-score) [21]: 0.09
glycan array binding signal (z-score) [22]: 0.135
glycan array binding signal (z-score) [23]: -0.435
glycan array binding signal (z-score) [24]: 0.045
glycan array binding signal (z-score) [25]: -0.504
glycan array binding signal (z-score) [26]: -0.608
glycan array binding signal (z-score) [27]: -0.382
glycan array binding signal (z-score) [28]: 0.291
glycan array binding signal (z-score) [29]: -0.347
glycan array binding signal (z-score) [30]: 0.324
glycan array binding signal (z-score) [31]: -0.107
glycan array binding signal (z-score) [32]: -0.289
glycan array binding signal (z-score) [33]: -0.434
glycan array binding signal (z-score) [34]: -0.056
glycan array binding signal (z-score) [35]: 0.867
glycan array binding signal (z-score) [36]: 0.928
glycan array binding signal (z-score) [37]: 1.15
